± gives the standard deviation of the averaged measurements. This is one part of the list.
system: PfAP2-G AP2 domain (GST-tagged); experiment: gcPBM binding intensity (ln(normalized median fluorescence intensity)); higher = stronger DNA binding
Outline: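 After 1 h on an Agilent 4 × 180k array of primer-extended double-stranded 36-bp intergenic genomic probes and negative controls, bound GST-tagged P. falciparum DNA-binding domains were detected with Alexa488 anti-GST antibody and scanned at 488 nm. The domains had been expressed in E. coli, and binding took place in 1× PBS with 1% milk, 0.2 mg/ml BSA, 0.5% salmon testes DNA and 0.03% Triton X-100. Binding intensity is the highest Masliner-normalised natural-log median intensity across replicate spots of either probe orientation.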

Sequence | gcPBM binding intensity (ln)
TATATATATAGAAATGCATGTTAATAAAAGTTATAA [TGCATGCA_site947] | 9.845 ± 0.035
GAATACATAATAACATGTACACACATTCTTCTATAA [XGTACX_site8725] | 11.2 ± 0.57
TATGAACACCAACACACACACAAAAAAAAAAAAAAA [CACACA_site2013] | 10.1 ± 0.7
TATCATAAAAAATATACACACAAAGGATATTTATAT [CACACA_site6841] | 9.84 ± 0.2
AAAAAAAATATAATATGTACATATCTATATATCAAC [XGTACX_site4881] | 11.2 ± 0.76
TATACATATGAAAATACACACATACATACAGATATA [CACACA_site5002] | 10.1 ± 0.12
TTGTTTTTAATATCGGTGCAATGGAAAGAAAAGAAG [GTGCAC_site9494] | 10.3 ± 0.3
GTACATTATTTATATACACACAAAGAAAAATATACA [CACACA_site3452] | 11 ± 0.54
TTTAAAATATATAGTACACACGTGAACACAAATACA [CACACA_site4392] | 11.5 ± 0.76
TAAAGCATATTATAAACACACACTGTATAAAGATAT [CACACA_site296] | 9.965 ± 0.049
TACGTAAAATAATTGAGTACATAATTATATATATAT [XGTACX_site5361] | 11.4 ± 0.91
AAAAATAATCATTAGGTGCAAAAAATATATATATAT [GTGCAC_site9631] | 10.2 ± 0.57
AACAAATATATATGTAGTACATGTTGTAGATAATTT [XGTACX_site24] | 11.5 ± 0.71
TTTTTTTTTTTAAATTCACACAATATATAAATATTG [CACACA_site5201] | 9.89 ± 0.057
AGAAAAATTATTTTGCGTACATATTTACAATAAAAA [XGTACX_site2144] | 11.5 ± 0.75
TATATGTATATATATTAACACACAAAAAAAAAAAAA [CACACA_site8534] | 9.82 ± 0.42
TAAACAAATAAATAAACACACAATATCTGTATTTAT [CACACA_site5978] | 9.27 ± 0.69
TTTTTCAGAAAAGAAACACACATATTTATATTTATA [CACACA_site7167] | 9.85 ± 0.057
AGTAATAGTTTGTGCACACTCAAGTATATCATATAT [CACACA_site4034] | 10.6 ± 0.29

Sequence | gcPBM binding intensity (ln)
TTTTACTTAAAACACACACACACAAAAAAAAAAAAA [CACACA_site947] | 10 ± 0.57
ATTAAATCGATATATACACACATGTTTGGTATATTC [CACACA_site7285] | 9.8 ± 0.15
TTAAAATAAAGTAGTGGTACAAAAAAAAAAAAAAAA [XGTACX_site6322] | 11.2 ± 1.2
TAACCTATAATATTCACACACATATAAATATTATAG [CACACA_site6592] | 9.86 ± 0.36
GTGTAATATATTTTTCGTACATATTATATATATATA [XGTACX_site1675] | 11 ± 0.69
TTATACACCTTTCATTGTACATATAATTTATATTCT [XGTACX_site8685] | 11.2 ± 0.59
TATATATATATATATTGTACAAAATATTTATATGTT [XGTACX_site436] | 10.7 ± 0.26
TAATTAATTTATTAGTTGCACTGTACCATTAGAGTA | 11 ± 0.87
GTTCATAAATTAAACACACACACACCCCTGGATACC [CACACA_site3331] | 10.8 ± 0.58
TCTTCTAATTTACCTACACACAGGAGATATATAAAT [CACACA_site6276] | 9.97 ± 0.042
TATATTACTTTGTGTTGTACGGAAATATATATATAT [XGTACX_site4309] | 11.3 ± 0.94
ATATTTTATTTAATTACACACAATATTGCAATTTGT [CACACA_site669] | 10.09 ± 0.021
AAGGATTTTTTATACACACACTAACTAATGTATATA [CACACA_site7163] | 10.03 ± 0.042
TAATACCATAACAAGTGTACATAAATAATTATTGTA [XGTACX_site4949] | 11.5 ± 0.81
AATATTCAATATATATATATATATAATATTAATATA [GTGCAC_negctrl_site571] | 9.515 ± 0.021
ATAGCACATTTTTAAGCACACGTTTATTATATATAT [CACACA_site6084] | 10.3 ± 0.24
CAAAAATATATTTTTTGTACACAAAAAAAAAATAAA [XGTACX_site5229] | 11.4 ± 0.98
ATAATTATTCTTATGGTGCACTGAATATACATGTTG [GTGCAC_site9760] | 10.5 ± 0.28
AAAACTATTAAATGTAGTACATAATTATTGAAATAA [XGTACX_site8716] | 11.6 ± 0.91

Sequence | gcPBM binding intensity (ln)
AAATACATATCATGTAGTACATATATATGTAGGTTA [XGTACX_site5392] | 11.3 ± 0.85
ACTTTACGAATTAAGAGTACTTATTTAAGGAACACT [XGTACX_site7919] | 11.4 ± 0.9
TGTTGTATTTTTACAACACACATTTAATCCATTTAA [CACACA_site1507] | 10 ± 0.27
CTTATATATTGGGATAGTACTTTTAACTAAATAGAA [XGTACX_site5900] | 11.1 ± 0.67
TTTGAAAAGTTGAAATGTACACATTTACACATATTT [XGTACX_site1641] | 11.2 ± 0.86
TTTTTATTGAGATACTTATATAATTTTATGAATAAA [XGTACX_negctrl_site311] | 10 ± 0.3
TTTTTTTGCTCTTTTTATATATATATATATATATAT [GTGCAC_negctrl_site70] | 10.1 ± 0.33
TATATATATAAAATATGTACATAAAATTATTTATTT [XGTACX_site7666] | 11.4 ± 0.78
AAAGTTTAAATGAGAAGTACAAATTTTTGTTTTTAT [XGTACX_site1844] | 11.1 ± 0.55
ATGTTAACTAAATGTACACACCTATGTTGATGTAAC [CACACA_site5073] | 11.3 ± 0.97
GTAATACACATATAATGTACTCATAAATATATTTAT [XGTACX_site4041] | 11.4 ± 0.98
TCATAGGAGAACTTTTGTACAGATTTTTCTTTTTTT [XGTACX_site2853] | 10.7 ± 0.28
ATATAAAGTATGTTAGTGCACTTTTTTTTTTTTTTT [GTGCAC_site9419] | 10.8 ± 0.59
CAAAGAACTTATAGGGTGCTTTACTTATAAGTAAAT [GTGCAC_site9579] | 10.06 ± 0.064
AATTTTATATATATATGTACATATTTATATGCTTAT [XGTACX_site8180] | 11.1 ± 0.66
AATATAAGTGTACATACACACTTTACAATATCATAT [CACACA_site5634] | 11.5 ± 1
TTTCTATATCTTTCAACACACAAATTTTTTTTTCCA [CACACA_site108] | 9.85 ± 0.14
ACATACATACCCCCACGTACGTACCGAAACACCACC [XGTACX_site1982] | 11.5 ± 0.74
GTGGTTGTAATGGTGGTGCATATTGTATATTATGTT | 10.9 ± 0.58
